The values that follow come from the supplement of paper PMC11417369.

± gives the standard deviation of the averaged measurements. The list shows a part of the results.

The subject of the assay is PfAP2-I AP2 domain 3 (GST-tagged). Put plainly: gcPBM binding intensity (ln(normalized median fluorescence intensity)); higher = stronger DNA binding. Summed up:
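The binding buffer was 1× PBS containing 1% milk, 0.2 mg/ml BSA, 0.5% salmon testes DNA and 0.03% Triton X-100. In it, GST-tagged P. falciparum DNA-binding domains expressed in E. coli were applied for 1 h to an Agilent 4 × 180k array of primer-extended double-stranded 36-bp intergenic genomic probes plus negative controls. Binding intensity, read with Alexa488 anti-GST antibody and a 488 nm scan, is the highest Masliner-normalised natural-log median intensity across replicate spots of either probe orientation.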
“TATTAACACAATAGCGCACACTTTTAATATTTTATA [CACACA_site1617]”: the “gcPBM binding intensity (ln)” value came out at 10.1 ± 0.56. The figure for “ATATAATGTTGTAATAGTACTTTTTTCATATAAATA [XGTACX_site2666]” is 7.91 ± 0.42; for “ATCTCTTATATATTCACACACATATATATAATTATA [CACACA_site1502]” it is 8.27 ± 0.47; for “AAATATAATAACGAACGTACTTATTATAATTTGTAA [XGTACX_site2342]” it is 7.5 ± 0.28. “TATTTATATATATGATGTACATAAGGTGTAATGTTA [XGTACX_site5591]”: the “gcPBM binding intensity (ln)” value was 8.12 ± 0.24.

As to “ATATATATTTAATGTTGTACATAAAAAATATATAAA [XGTACX_site7774]”, the “gcPBM binding intensity (ln)” value turned out to be 7.72 ± 0.2. For the sequence “TACATGAATATTTATACATGCACACTAAAATAAAGA [TGCATGCA_site611]”, the “gcPBM binding intensity (ln)” value is 8.52 ± 0.81.

As to “TATTTACATACAAAATGTACAAAAATATATTTTTTT [XGTACX_site888]”, the “gcPBM binding intensity (ln)” value was found to be 7.67 ± 0.43. In the case of “TATAAACCTTTTTGCACGCACACAAAAAAAAAATAA [CACACA_site168]” it was 9.99 ± 0.46; in that of “AAACATATATACATATGTACATATATACATATATGT [XGTACX_site5779]”, 8.04 ± 0.057; in that of “GATTAACAACATATTAGTACATATATTATATATATA [XGTACX_site7646]”, 8.61 ± 0.23. The figure for GACTATAATGTTTTGGTGCGTCATGTTATGGTCATC is 9.05 ± 0.24; for “TTCGGAAAAATTAAAGCACACAAAAAAAAATAAAAA [CACACA_site8296]” it is 9.94 ± 0.69; for “CACCCCCACAGACACACACACACACCGATATATATA [CACACA_site8010]” it is 9.06 ± 0.59.

“TATAATTTAACGACATGTACATATAAAAAAATATTT [XGTACX_site2395]”: the “gcPBM binding intensity (ln)” value turned out to be 7.96 ± 0.3. Regarding “CATATTTTATTATATACATGCAATTTTAATATATAT [TGCATGCA_site544]”, the “gcPBM binding intensity (ln)” value amounted to 7.75 ± 0.33. On to “TGTAGATTTTGTAACACACACATATAAATACCTATA [CACACA_site7183]”, for which the “gcPBM binding intensity (ln)” value is 7.79 ± 0.45. The figure for “TTATTTATATTTTTTTGTACACATATTGTATACATA [XGTACX_site1178]” is 8.07 ± 0.47; for “ATACACATTCTTCCGACATAATAAGAAAAAGAAAAA [CACACA_negctrl_site9]” it is 7.67 ± 0.47. In the case of “AAAATGTATTCTCTCATGCACACTTTCTTTAAGGGA [CACACA_site2196]” it was 8.3 ± 0.55; in that of “TCAATCATCTTATATAGTACACATAAAAGTATTATA [XGTACX_site8513]”, 7.7 ± 0.35.

Turning to “GACAAAATGATAGGGACACACAATATCAATGTTTAA [CACACA_site765]”, the “gcPBM binding intensity (ln)” value was determined as 7.63 ± 0.45.

AAAAAAAAAAATCCAGTGCATATATTTTTTACATAT: the “gcPBM binding intensity (ln)” value came out at 9.87 ± 0.16.

As for “CCACTAATAAATATTACACACATATAGATTTATATT [CACACA_site7465]”, the “gcPBM binding intensity (ln)” value was found to be 7.83 ± 0.44. In the case of “CAAAAGGATATGCACACACACACACGGATATTTATA [CACACA_site7099]”, the “gcPBM binding intensity (ln)” value came out at 8.985 ± 0.064. For the sequence “AGGCACACAAACATATGTACACATATATATATATAT [XGTACX_site4723]”, the “gcPBM binding intensity (ln)” value stood at 9.24 ± 0.14. The figure for “ATATTTATATGGTTTGCACACATAACAACTATGGTT [CACACA_site3631]” is 8.64 ± 0.31; for “ATATAACATATCAATTGTACGTATTGATAATATATA [XGTACX_site2504]” it is 7.72 ± 0.29. In the case of “TTTTGTTTTAATTTTATTTGATTTTATTTGATTTAT [CACACA_negctrl_site692]” it was 7.39 ± 0.69; in that of “TTTATTGAACGTACACATATATATATGTATATATTT [TGCATGCA_negctrl_site141]”, 7.99 ± 0.15.

In the case of “TTATTTTTTTTATATATATGTATAAATATATATATA [XGTACX_negctrl_site441]”, the “gcPBM binding intensity (ln)” value is 8.69 ± 0.25. In the case of “ATATATATAAAATATACACACATACTGTTCATTTAA [CACACA_site6149]” it was 8.03 ± 0.64; in that of “TTTTATTATTAATTTCTTTTTTCTCATCACTTTCAA [XGTACX_negctrl_site117]”, 7.63 ± 0.98; in that of “TTTACAAAAAATTATACACACACGTACATATAAATA [CACACA_site945]”, 7.85 ± 0.28. For the sequence “TAATTTATGAGTAATACACACACTTGTGGATATATT [CACACA_site3790]”, the “gcPBM binding intensity (ln)” value is 7.66 ± 0.49. In the case of “GAAAAATTTTTATATGTGCACATGTTATATATAATT [GTGCAC_site9742]” it was 9.46 ± 0.62; in that of “AAATATTATTTATTTACACACCAATCTTCTTTTCTT [CACACA_site3990]”, 7.72 ± 0.64; in that of “TACGTTCTAATATATACACACCTGGTATTAATTATG [CACACA_site5260]”, 7.81 ± 0.49. In the case of “AAAAACTTAATATTCACACATATATATATATATATA [CACACA_site5240]” it was 9.38 ± 0.53. For the sequence “CGTATATATATATACACACACATATATATATGTAAA [CACACA_site195]”, the “gcPBM binding intensity (ln)” value was 7.84 ± 0.47. The figure for “TATTTCCATTCATAATTTTGTAGAATATATAACCGT [CACACA_negctrl_site1531]” is 7.64 ± 0.59; for “AAAAAAAAAAATTACACACATACATATAATAATAAT [CACACA_site2193]” it is 7.59 ± 0.65; for “GGTAATTTTTTTTAAATACACACTGAAATGTGAATT [CACACA_site564]” it is 8.01 ± 0.33. In the case of “AACATACATAAACACACACACACACCCACAGAGACA [CACACA_site4430]” it was 8.32 ± 0.22.
